Experiments:
K-Ras Q61H = K-Ras Q61H (Homo sapiens, UniProt P01116, Q61H); assay: SOS1 catalyzed nucleotide exchange assay (GDP form K-Ras), K-Ras Q61H; conditions: read-out: K-Ras Q61H GDP Biochemical Activity (IC50)
K-Ras G12R = K-Ras G12R (Homo sapiens, UniProt P01116, G12R); assay: SOS1 catalyzed nucleotide exchange assay (GDP form K-Ras), K-Ras G12R; conditions: read-out: K-Ras G12R GDP Biochemical Activity (IC50)

Q: With `C#Cc1c(F)ccc2cc(O)cc(-c3ncc4c(N5CC6COC(C6)C5)nc(OC[C@@]56CCCN5C[C@H](F)C6)nc4c3F)c12` (single isomer, unassigned) [Compound 84B, 4-(4-((1S,5R)-6-oxa-3-azabicyclo[3.2.1]octan-3-yl)-8-fluoro-2-(((2R,7aS)-2-fluorotetra-hydro-1H-pyrrolizin-7a(5H)-yl)methoxy)pyrido[4,3-d]pyrimidin-7-yl)-5-ethynyl-6-fluoronaphthalen-2-ol or 4-(4-((1R,5S)-6-oxa-3-azabicyclo[3.2.1]octan-3-yl)-8-fluoro-2-(((2R,7aS)-2-fluorotetra-hydro-1H-pyrrolizin-7a(5H)-yl)methoxy)pyrido[4,3-d]pyrimidin-7-yl)-5-ethynyl-6-fluoronaphthalen-2-ol] as the compound, how does the IC50 (K-Ras Q61H) read?
A: 1.26 nM

Q: What about the IC50 (K-Ras G12R) of the same compound?
A: 0.63 nM

Reference: patent publication US20250019377A1 (JACOBIO PHARMACEUTICALS CO., LTD, priority 2021, published 2025)
